Data on 130 sequences can be found in a collection of fitness landscapes (doi:10.1038/s41467-024-54723-y).

Whole data set: some 18,000 sequences, median “TetR repression strength (sort-seq, GFP reporter)” near 0.23, cut for the highest 2% near 0.68. This is one part of the list.

Chain of UniProt P04483 (P04483 whole entry): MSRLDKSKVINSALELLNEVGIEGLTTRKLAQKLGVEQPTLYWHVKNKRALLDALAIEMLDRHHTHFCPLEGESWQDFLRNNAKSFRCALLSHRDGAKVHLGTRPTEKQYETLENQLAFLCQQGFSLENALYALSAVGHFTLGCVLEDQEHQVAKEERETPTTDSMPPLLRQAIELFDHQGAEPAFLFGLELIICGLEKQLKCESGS

In this test the target is TetR (class B, Tn10) (UniProt P04483). Nature of the test: TetR repression strength (sort-seq, GFP reporter) (relative to tetO2 = 1); higher = stronger repression. Particulars: E. coli. The essentials:
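Repression strength is the top bin index plus one minus the read-weighted mean bin, relative to the unaltered operator's value. A low-copy library in E. coli SIG10-MAX randomized eight operator positions between a constitutive promoter and sfGFP, with TetR expressed constitutively; cells grew 5 h at 37 °C in LB with 50 µg/mL chloramphenicol and 10^6 were FACS-sorted into 13 bins that were each Illumina-sequenced. Three independent transformations were averaged, keeping only members with ≥30 reads in all replicates and CV ≤0.5.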
As to TCCCTCGAAGTGCTAGAGA, the TetR repression strength is 0.246.

Sequence TCCCCGGCAGTATTCGAGA returned a TetR repression strength of 0.167. With TCCCCACCAGTAGTAGAGA the figure was 0.29. On to TCCCGAAAAGTCGTGGAGA, for which the TetR repression strength was determined as 0.339. TCCCTAAAAGTCCATGAGA returned a TetR repression strength of 0.193. TCCCTTTGAGTCTTGGAGA yielded a TetR repression strength of 0.199.

The sequence TCCCACGGAGTTAGGGAGA registered a TetR repression strength of 0.125. TCCCTCTGAGTACGTGAGA had a TetR repression strength of 0.313.

Consider TCCCTTCAAGTGTGGGAGA, for which the TetR repression strength amounted to 0.387. As for TCCCGCTCAGTGACAGAGA, the figure is 0.715. As to TCCCGGGGAGTCGTGGAGA, the TetR repression strength is 0.26. TCCCGTTTAGTGTATGAGA: the TetR repression strength turned out to be 0.207. In turn, TCCCGTCCAGTAGGTGAGA returned a TetR repression strength of 0.181. Take TCCCCACAAGTTGGCGAGA: the TetR repression strength came out at 0.2. TCCCCTATAGTATAGGAGA yielded a TetR repression strength of 0.0691. Sequence TCCCGGGCAGTTACAGAGA yielded a TetR repression strength of 0.235. In the case of TCCCGCCAAGTGGGGGAGA, the TetR repression strength was 0.395. TCCCTACCAGTTGTTGAGA gave a TetR repression strength of 0.168. In the case of TCCCGGCAAGTGTCGGAGA, the TetR repression strength is 0.0373. As for TCCCCTAGAGTCCGCGAGA, the figure is 0.332; as for TCCCTTTTAGTCTGTGAGA, 0.248.

TCCCTGTTAGTGGTAGAGA: the TetR repression strength stood at 0.404.

Sequence TCCCGCCGAGTTTGGGAGA showed a TetR repression strength of 0.184. In the case of TCCCGTGTAGTGGGCGAGA, the TetR repression strength stood at 0.242.

Sequence TCCCAGGAAGTTCCGGAGA displayed a TetR repression strength of 0.0651. As for TCCCTGTCAGTCACCGAGA, the figure is 0.664; as for TCCCTCGGAGTAGTAGAGA, 0.115.

The sequence TCCCGTAGAGTCAAGGAGA showed a TetR repression strength of 0.412.

TCCCTTCGAGTTCGGGAGA had a TetR repression strength of 0.176. Consider TCCCGATGAGTGCTCGAGA, for which the TetR repression strength came to 0.361.

In the case of TCCCCCTGAGTGCGCGAGA, the TetR repression strength was 0.332. The sequence TCCCTTCGAGTCGCCGAGA returned a TetR repression strength of 0.303.

TCCCAGAGAGTGCGTGAGA gave a TetR repression strength of 0.0296. TCCCGCTGAGTCGACGAGA registered a TetR repression strength of 0.264. As for TCCCGCGGAGTGCTTGAGA, the figure is 0.186; as for TCCCATCGAGTCAATGAGA, 0.0272; as for TCCCTCTCAGTGCAGGAGA, 0.182. On to TCCCGTCCAGTGCAGGAGA, for which the TetR repression strength is 0.191. Consider TCCCAACAAGTGTGTGAGA, for which the TetR repression strength worked out at 0.207. With TCCCGCGTAGTGTGGGAGA, the TetR repression strength was found to be 0.207. As for TCCCAATGAGTGGGAGAGA, the figure is 0.341.

Take TCCCACCAAGTCTCTGAGA: the TetR repression strength stood at 0.207. As for TCCCGCGAAGTGGAAGAGA, the figure is 0.256. Turning to TCCCCGATAGTATCGGAGA, the TetR repression strength stood at 0.119.

With TCCCTAATAGTCTTCGAGA, the TetR repression strength worked out at 0.623. TCCCCGCAAGTTAAAGAGA returned a TetR repression strength of 0.294. As for TCCCCCCGAGTGCGGGAGA, the TetR repression strength was found to be 0.215. On to TCCCTGAGAGTGACTGAGA, for which the TetR repression strength is 0.216. Take TCCCATAGAGTGTGCGAGA: the TetR repression strength was determined as 0.125. With TCCCTATGAGTGGTTGAGA the figure was 0.13. As for TCCCCGGAAGTTGCTGAGA, the figure is 0.292; as for TCCCCGACAGTAGGAGAGA, 0.107; as for TCCCGTGGAGTAAGTGAGA, 0.314. The sequence TCCCAGATAGTTGCTGAGA had a TetR repression strength of 0.129.

Turning to TCCCGTCAAGTGAGTGAGA, the TetR repression strength is 0.14. As for TCCCCATAAGTGCGGGAGA, the figure is 0.392. On to TCCCATCTAGTACTAGAGA, for which the TetR repression strength is 0.266.

In turn, TCCCGATGAGTCCCCGAGA displayed a TetR repression strength of 0.145.

TCCCGTAGAGTCGAGGAGA registered a TetR repression strength of 0.103. The sequence TCCCCTCAAGTCAGGGAGA registered a TetR repression strength of 0.104. TCCCGAGAAGTTGGCGAGA returned a TetR repression strength of 0.222. Consider TCCCGATCAGTGTATGAGA, for which the TetR repression strength stood at 0.168. TCCCCTTGAGTGTGAGAGA registered a TetR repression strength of 0.247.

As to TCCCGGGGAGTGAAAGAGA, the TetR repression strength stood at 0.226.

The sequence TCCCGTGCAGTCGTGGAGA yielded a TetR repression strength of 1.

For the sequence TCCCCGGTAGTTCCTGAGA, the TetR repression strength came to 0.186. With TCCCGCTTAGTCATGGAGA, the TetR repression strength came out at 0.0661. Take TCCCGGCGAGTATCTGAGA: the TetR repression strength came out at 0.309. TCCCGAGAAGTCGGAGAGA showed a TetR repression strength of 0.222.

On to TCCCGTATAGTAGCGGAGA, for which the TetR repression strength turned out to be 0.072.

The sequence TCCCTTCTAGTTATGGAGA showed a TetR repression strength of 0.32. With TCCCTGGCAGTTGCTGAGA the figure was 0.219; with TCCCTATTAGTCAAAGAGA, 0.195. TCCCAGAGAGTGTCAGAGA: the TetR repression strength was found to be 0.097.

In turn, TCCCTCACAGTTGGGGAGA registered a TetR repression strength of 0.125. Sequence TCCCTTCTAGTTCACGAGA came in with a TetR repression strength of 0.413. The sequence TCCCGCGCAGTATCGGAGA returned a TetR repression strength of 0.207. Sequence TCCCTGCTAGTGCTAGAGA showed a TetR repression strength of 0.258. TCCCGATCAGTAAGGGAGA came in with a TetR repression strength of 0.097. For TCCCTCCAAGTCGTCGAGA, the TetR repression strength turned out to be 0.276. Take TCCCCCTCAGTAGACGAGA: the TetR repression strength was 0.28. For the sequence TCCCGGGCAGTGGGCGAGA, the TetR repression strength came out at 0.253. Regarding TCCCCTGTAGTGCCTGAGA, the TetR repression strength turned out to be 0.256.

In turn, TCCCTCATAGTAAGTGAGA registered a TetR repression strength of 0.276. Sequence TCCCTGTGAGTGAACGAGA had a TetR repression strength of 0.149. Regarding TCCCGGCAAGTGGGGGAGA, the TetR repression strength was 0.23.

Regarding TCCCTGTCAGTTGCAGAGA, the TetR repression strength worked out at 0.468. Take TCCCAGCGAGTCTCGGAGA: the TetR repression strength worked out at 0.29.

Sequence TCCCATGAAGTTTAGGAGA returned a TetR repression strength of 0.123. With TCCCTGTAAGTAAGCGAGA the figure was 0.27. Regarding TCCCACATAGTTAAGGAGA, the TetR repression strength was 0.274. Turning to TCCCGCGAAGTGGTAGAGA, the TetR repression strength turned out to be 0.184.

In the case of TCCCACATAGTGAAGGAGA, the TetR repression strength was determined as 0.227. Turning to TCCCGTAAAGTTCCGGAGA, the TetR repression strength was determined as 0.38. TCCCCCATAGTTCACGAGA registered a TetR repression strength of 0.46. In the case of TCCCAGTCAGTGATCGAGA, the TetR repression strength amounted to 0.322. Sequence TCCCAGAGAGTTCTCGAGA had a TetR repression strength of 0.174. On to TCCCTGCGAGTTCAGGAGA, for which the TetR repression strength came to 0.122. TCCCCGGGAGTCGTAGAGA: the TetR repression strength was 0.195. On to TCCCATGAAGTGAAAGAGA, for which the TetR repression strength came to 0.138. Consider TCCCCGGCAGTCCCGGAGA, for which the TetR repression strength was determined as 0.416. As for TCCCGTCAAGTAAGCGAGA, the figure is 0.199; as for TCCCTGCGAGTCGGGGAGA, 0.217; as for TCCCGGACAGTGGACGAGA, 0.0721. With TCCCACGGAGTGCAGGAGA, the TetR repression strength came out at 0.194. TCCCGGCAAGTCTCGGAGA had a TetR repression strength of 0.102. TCCCTGCGAGTAGGAGAGA showed a TetR repression strength of 0.0666. TCCCGTACAGTCCATGAGA returned a TetR repression strength of 0.158. Sequence TCCCATATAGTTGTAGAGA returned a TetR repression strength of 0.454.

TCCCCGCAAGTCGGAGAGA gave a TetR repression strength of 0.258. TCCCAGGGAGTTTACGAGA gave a TetR repression strength of 0.183. As to TCCCTAGGAGTGGGGGAGA, the TetR repression strength came out at 0.202. Sequence TCCCTGAGAGTCGTAGAGA had a TetR repression strength of 0.18.

TCCCATCTAGTACCTGAGA registered a TetR repression strength of 0.357. Take TCCCTGCGAGTGTCGGAGA: the TetR repression strength was 0.255.

As to TCCCCTAGAGTGTGTGAGA, the TetR repression strength is 0.147.

In turn, TCCCACCGAGTGGATGAGA showed a TetR repression strength of 0.125.

In the case of TCCCCACGAGTTCCGGAGA, the TetR repression strength came to 0.267. With TCCCTGCGAGTTGTTGAGA, the TetR repression strength came to 0.0124.

In turn, TCCCGTGTAGTGGATGAGA displayed a TetR repression strength of 0.0847. TCCCCAGAAGTTGTGGAGA gave a TetR repression strength of 0. Regarding TCCCTGGAAGTCGGTGAGA, the TetR repression strength came to 0.317. Consider TCCCCGGTAGTTGAAGAGA, for which the TetR repression strength was 0.343. On to TCCCGATGAGTCTGCGAGA, for which the TetR repression strength stood at 0.339. With TCCCAGAAAGTGCCCGAGA the figure was 0.136.

The sequence TCCCAGTCAGTTGGGGAGA yielded a TetR repression strength of 0.23. With TCCCACATAGTTGGAGAGA the figure was 0.254.

TCCCTCGAAGTGGCGGAGA had a TetR repression strength of 0.391. As to TCCCCATGAGTGTCCGAGA, the TetR repression strength is 0.415.

TCCCGAAGAGTAAGTGAGA gave a TetR repression strength of 0.207.
